Experimental data as given in PubChem BioAssay AID1346428 (National Center for Advancing Translational Sciences (NCATS), 2018).
“And” between values parts separate entries of the source, which are not always exact repeats. Equal values may be shown once. The campaign covered roughly 48,000 compounds. About 1,200 (2.5%) were called active. Another 2% or so got no clear call; they are omitted.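 Rule for the calls: active = activation of at least 60% and not above a set upper limit (about 1 call in 100 departs from these limits); inconclusive = activation of 40% to 60%, or above that upper limit; inactive = activation under 40%.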 The list shows a part of the results.

biological target: Probable G-protein coupled receptor 32 (Homo sapiens) (UniProt O75388); test: qHTS for Agonists of Human Resolvin D1 Receptor DRV1; conditions: CHO-K1 GPR32 beta-arrestin PathHunter luminescence, 90 min; at 76.9 µM; hits give high values; zero percent set by DMSO-only wells; note: 0% is about no effect
Method in brief: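 Luminescent readout of beta-Gal complementation quantifies ligand-induced beta-arrestin association with GPR32 in CHO-K1 cells; 90 min compound incubation at 37 °C, detection 1 h at room temperature.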

Sequence of UniProt O75388 (O75388 whole entry, looked up): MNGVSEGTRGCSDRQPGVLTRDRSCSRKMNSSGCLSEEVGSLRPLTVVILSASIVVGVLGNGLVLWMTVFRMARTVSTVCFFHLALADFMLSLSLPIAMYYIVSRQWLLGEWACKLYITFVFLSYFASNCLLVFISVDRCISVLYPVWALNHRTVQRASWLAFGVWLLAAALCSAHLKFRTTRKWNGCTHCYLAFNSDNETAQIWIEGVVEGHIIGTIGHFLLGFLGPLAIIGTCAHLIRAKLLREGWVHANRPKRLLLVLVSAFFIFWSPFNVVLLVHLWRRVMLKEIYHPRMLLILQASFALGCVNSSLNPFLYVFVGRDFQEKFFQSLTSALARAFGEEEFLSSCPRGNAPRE

Row | Compound | activation
1 | Cc1ccccc1-c1nc(CN2CCCC(C(=O)NCc3ccc(Cl)cc3)C2)c(C)o1 (stereo not drawn) | inactive: 23.3%
2 | COc1ccc(N2C(=O)NC(NS(=O)(=O)c3ccc(Cl)cc3)(C(F)(F)F)C2=O)cc1 (stereo not drawn) | inactive: -2.22%
3 | CNC(=O)C1CCC(Cn2c(=O)c3sccc3n(Cc3cc(C)ccc3C)c2=O)CC1 (stereo not drawn) | inactive: 0.452%
4 | COc1ccc([N+](=O)[O-])cc1NC(c1nnc(-c2ccccc2)o1)c1ccccc1F (stereo not drawn) | inactive: -24.9%
5 | CCc1ccc(S(=O)(=O)c2cn(CC(=O)Nc3ccc(F)c(Cl)c3)c3ccccc3c2=O)cc1 | inactive: 3.53%
6 | CCN(C(=O)Cn1c(C(=O)OC)cc2sc(Cl)cc21)c1cccc(C)c1 | inactive: -10.5%
7 | COc1ccc(C2C(=O)N(C3CCCCC3)CC(=O)N2CCc2ccc(C)cc2)cc1OC (stereo not drawn) | inactive: -11.6%
8 | CSc1nc(NCCOC(C)=O)c(C#N)c(-c2ccc(C(C)(C)C)cc2)n1 | inactive: -24.1%
9 | NC(CS)C(=O)O (stereo not drawn) | inactive: -4.95%
10 | Cc1ccc2nc(CN3CCN(C(=O)Nc4ccc(F)cc4)CC3)oc2c1 | inactive: -2.74%
11 | CCc1ccccc1NC(=O)c1cn(C)c(=O)c2ccccc12 | inactive: -17.9%
12 | CCn1c(COc2ccc(Cl)cc2Cl)nc2ccccc21 | inactive: 46.5%
13 | COc1c(Cl)cc(Cl)cc1C(=O)Nc1cccc(-c2nc3ccccc3o2)c1C | inactive: 13.6%
14 | O=S(=O)(c1ccc(F)cc1)N1CCC(Oc2cccc(C(F)(F)F)c2)CC1 | inactive: -14.7%
15 | COc1cccc(CNC(=O)C(=O)NCC(c2cccs2)S(=O)(=O)c2ccccc2)c1 (stereo not drawn) | inactive: -6.93%
16 | COc1ccc(CCNC(=O)CCCn2c(=O)c3ccccc3n(Cc3ccccc3)c2=O)cc1OC | inactive: -8.4%
17 | COc1ccc(S(=O)(=O)N2Cc3ccccc3CC2C(=O)Nc2ccc(C)cc2)cc1OC (stereo not drawn) | inactive: -19.9%
18 | Cc1c2cnn(-c3ccccc3)c(=O)c2c(C)n1C(C)C(=O)Nc1ccccc1C(F)(F)F (stereo not drawn) | inactive: -20.9%
19 | Cc1cccc(N2CCN(C(=O)c3ccc4c(c3)N(Cc3ccccc3)C(=O)c3ccccc3S4(=O)=O)CC2C)c1 (stereo not drawn) | inactive: -63.8%
20 | Cc1cccc(CCNC(=O)c2cc(S(=O)(=O)N3CCCCC3)c[nH]2)c1 | inactive: -10.5%
21 | C/C=C/c1ccc(OC)cc1 | inactive: -4.35%

Row | Compound | activation
22 | COc1ccc(CCN2C(=O)N(c3cccc(C)c3)C(=O)C2CC(=O)Nc2ccccc2)cc1OC (stereo not drawn) | inactive: -3.07%
23 | Clc1ccc(CCNc2nc3cc(Cl)c(Cl)cc3n3cnnc23)cc1 | inactive: 0.893%
24 | CCOC(=O)CC(NC(=O)Cn1nnc(-c2ccccc2Cl)n1)c1ccc(OC)cc1 (stereo not drawn) | inactive: -7.08%
25 | Cc1ccc(C)c(NC(c2ccccc2)c2nnc(-c3ccccc3F)o2)c1 (stereo not drawn) | inactive: -35.7%
26 | COc1ccc(-c2nnc(C3CCN(S(=O)(=O)c4cccc(Cl)c4)CC3)o2)cc1 | inactive: -6.69%
27 | COc1cc(-c2nc(SCC(=O)Nc3ccc4c(c3)OCO4)c(-c3ccccc3)[nH]2)cc(OC)c1OC | inactive: -22.7%
28 | COc1ccccc1CNC(=O)CSc1ncc(S(=O)(=O)c2ccc(C)c(Cl)c2)c(=O)[nH]1 | inactive: -8.34%
29 | COc1ccc(OCCn2c(NC(=O)c3ccc(OC)cc3)nc3ccccc32)cc1 | active: 62.8%
30 | N=C(N)c1ccc(N)cc1 | inactive: 0.216%
31 | COCCCNC(=O)C1CCN(Cc2cc3ccccc3n2Cc2cccc(C)c2)CC1 | inactive: 33.8%
32 | CCCN(CCC)CCc1cccc2c1CC(=O)N2 | inactive: -16% and inactive: -4.13%
33 | CNC(=O)C1CCC(Cn2c(=O)c3sccc3n(CC(=O)N3CCCC(C)C3)c2=O)CC1 (stereo not drawn) | inactive: -4.59%
34 | CCCCN(C(=O)C1CCC(CNS(=O)(=O)c2cccc3nsnc23)CC1)c1ccccc1 (stereo not drawn) | inactive: 15.3%
35 | CCOC(=O)c1c(NC(=O)c2ccc(OCC)c(Br)c2)sc2c1CCCC2 | inactive: 13.4%
36 | CC(=O)Nc1cc(C(=O)NCc2ccc(F)cc2)ccc1Sc1ccc(F)cc1 | inactive: -20.9%
37 | Cc1cc2oc(=O)c(CC(=O)NCCc3ccccc3F)c(C)c2c2occ(C(C)(C)C)c12 | inactive: -27.1%
38 | COc1ccc(CC(=O)NCC(c2cccs2)S(=O)(=O)c2ccc(F)c(C)c2)cc1 (stereo not drawn) | inactive: -7.18%
39 | Cc1ccc(C)c(S(=O)(=O)c2nnn3c2nc(N2CCN(C)CC2)c2sccc23)c1 | inactive: -25.9%
40 | O=c1c2cc3c(cc2nc2sc(Nc4cccc([N+](=O)[O-])c4)nn12)OCO3 | inactive: 0.129%
41 | CC(=O)Nc1ccc(NC(=O)CN(C)S(=O)(=O)c2ccc3c(c2)CCCC(=O)N3)cc1 | inactive: 18.6%
42 | CCc1ccc(CNC(=O)C2CCCN(c3nnc(C)c4c(C)n(-c5ccccc5)nc34)C2)cc1 (stereo not drawn) | inactive: 1.79%

Row | Compound | activation
43 | COc1ccccc1C(=O)N/C(=C\c1cn(S(=O)(=O)N(C)C)c2ccccc12)C(=O)NCCCn1ccnc1 | inactive: 10.7%
44 | Cc1ccccc1CSc1ncc(Cl)c(C(=O)Nc2nc3ccc(F)cc3s2)n1 | inactive: 10.7%
45 | COc1ccccc1C(=O)Nc1nc2n(n1)C(c1ccc(F)cc1)C=C(c1ccc(Cl)cc1)N2 (stereo not drawn) | inactive: 10.7%
46 | CCOC(=O)c1cc(S(=O)(=O)NCc2ccc(Cl)cc2)[nH]n1 | inactive: -9.7%
47 | Cc1cccc(CN2CCC(CNC(=O)Cn3ncc4c([nH]c5ccc(C)cc54)c3=O)CC2)c1 | inactive: 4.2%
48 | COc1ccccc1NC(=O)C1=C(C)Nc2nc(SC)nn2C1c1ccccc1Cl (stereo not drawn) | inactive: 34.5%
49 | COc1ccccc1C(=O)Nc1ccc2nc(SCC(=O)N3CCCc4ccccc43)sc2c1 | inactive: -18.1%
50 | COc1ccc(OC)c(NC(=O)C2CCCN(S(=O)(=O)c3ccc4c(c3)CCCC(=O)N4)C2)c1 (stereo not drawn) | inactive: -4.17%
51 | Cc1cc2n(n1)CCC(=O)N2Cc1ccc(C(=O)Nc2cc(Cl)ccc2C)cc1 | inactive: 9.36%
52 | COc1ccc(NC(=O)c2ccco2)cc1NC(=O)c1cc(Cl)ccc1OC | inactive: -25.9%
53 | O=S1(=O)c2ccccc2N(Cc2cccc(F)c2)c2ccccc21 | inactive: 5.15%
54 | CCCCN=C(N)N=C(N)N | inactive: 17.6%
55 | COc1cccc(-c2cc(C(F)(F)F)nc(NCCc3ccc(OC)c(OC)c3)n2)c1 | inactive: -14.2%
56 | CSc1ccc(-c2nnn(CC(=O)Nc3sc4c(c3C#N)CCC(C(C)(C)C)C4)n2)cc1 (stereo not drawn) | inactive: 39.9%
57 | CCCCOc1ccc(C(C)NC(=O)CN2C(=O)CSc3ccc(S(=O)(=O)N4CCOCC4)cc32)cc1 (stereo not drawn) | inactive: -37.2%
58 | CCCN(CCC)C(=O)Cn1c(=O)n(-c2cccc(C)c2)c(=O)c2c1c1cc(OC)ccc1n2C | inactive: -25.1%
59 | CC(C)CC(=O)NCC(c1ccc2c(c1)OCO2)N1CCN(c2ccccc2)CC1 (stereo not drawn) | inactive: -12%
60 | O=C(CN1CCCN(Cc2cccc(Cl)c2)S1(=O)=O)Nc1ccc2c(c1)OCCO2 | inactive: 18.4%
61 | COc1ccc(-c2[nH]nc3nc(-c4cc(Br)ccc4OC)cc(C(=O)O)c23)cc1 | inactive: -23.4%
62 | Cc1c(C(=O)OC2CCCCC2)[nH]c2c1C(=O)CC(c1ccc(F)cc1)C2 (stereo not drawn) | inactive: -5.86%
63 | Cc1cccc(NC(=O)c2ccc(-n3c(C)nnc3C)cc2)c1 | inactive: -3.49%

Row | Compound | activation
64 | Cc1ccc(-n2ncc3c(N4CCCCCC4)ncnc32)cc1Cl | inactive: 14.4%
65 | CCC(=O)Nc1ccc(Cl)c(-c2nc3ccccc3[nH]2)c1 | inactive: 23.1%
66 | COc1ccccc1CN1CCC(CNC(=O)c2cnn(-c3ccccc3Cl)c2C2CCN(C(=O)OC(C)(C)C)CC2)CC1 | inactive: -30.3%
67 | O=C(CSc1ncccc1C(=O)Oc1ccccc1Cl)Nc1ccc(C(F)(F)F)cc1Cl | inactive: -11.6%
68 | Cc1ccc(O)c(NC(=O)C2=CC(c3ccco3)=NS(=O)(=O)N2C)c1 | inactive: -2.67%
69 | COC(=O)c1ccc(NC(=O)C(=O)NCCc2csc(-c3ccc(F)cc3)n2)cc1 | inactive: -6.78%
70 | COc1ccc(N2CCN(Cc3nc4c(c(=O)[nH]c(=O)n4C)n3Cc3ccccc3C)CC2)cc1 | inactive: -8.92%
71 | Cc1csc2nc(COC(=O)CNC(=O)c3ccccc3)cc(=O)n12 | inactive: 32.4%
72 | COc1ccc(NC(=O)C2CCCN(S(=O)(=O)c3ccc(F)cc3)C2)cc1 (stereo not drawn) | inactive: 5.3%
73 | O=c1oc2ccccc2cc1-c1cn2cc(Cc3cc(Cl)ccc3Cl)sc2n1 | inactive: -4.3%
74 | Cc1ccc(CN(C(=O)COc2ccccc2[N+](=O)[O-])c2ccccn2)o1 | inactive: 2.23%
75 | CCc1nnc(NC(=O)CSc2nc3c([nH]c4ccccc43)c(=O)n2-c2ccc(Cl)cc2)s1 | inactive: -12.3%
76 | FC(F)(F)c1cc(-c2ccccc2)nc2cc(-c3ccccc3)nn12 | inactive: 21.8%
77 | CCN(CC)S(=O)(=O)c1ccc2c(c1)N(CC(=O)Nc1cccc(C#N)c1)C(=O)CO2 | inactive: -26.8%
78 | COc1ccc(NC(=O)Cn2c(=O)oc3cc(S(=O)(=O)N4CCCCCC4)ccc32)cc1OC | inactive: 48.7%
79 | Cc1ccc2onc(CC(=O)N3CCN(c4cccc(Cl)c4)CC3)c2c1 | inactive: -32.1%
80 | Cc1cc(F)ccc1NC(=O)Cn1cc(S(=O)(=O)NC(C)C)c(S(=O)(=O)NC(C)C)c1 | inactive: 7.18%
81 | CCCCSc1nc2sc3c(c2c(=O)n1-c1ccccc1C)CC(C)(C)OC3 | inactive: -7.14%
82 | COc1ccc(NC(=O)CNC(=O)Cn2c(C)cc3ccccc3c2=O)c(OC)c1 | inactive: -3.41%
83 | O=C(c1ccccc1)N1CCN(CCc2ccccn2)CC1 | inactive: 4.34%
